Experimental data from publication PMC10668032.
The list shows a part of the results. At the low end of the ranking the order means little.

Each sequence was assayed against SIX1-Q177R homeodomain (UniProt Q15475) (assay: universal protein binding microarray). Conditions: Universal all-10-mer PBM (8x60K, AMADID 030236), 300 nM GST-tagged protein, Alexa Fluor 488 anti-GST; buffer, salt, pH and temperature not stated; high values mean tight binding; most listed sequences are background and not binding sites; double strand, one strand shown.

Row | Sequence | binding signal
1 | AAGCGAAC | -0.106 E-score
2 | CATCCTCG | -0.0593 E-score
3 | ACTCTACC | 0.151 E-score
4 | CTGCCAAA | -0.183 E-score
5 | ACCAGCCC | 0.104 E-score
6 | CTGTTAGA | -0.0247 E-score
7 | GTGACTAA | -0.25 E-score
8 | CAACAGGC | -0.25 E-score
9 | GCTGGCAA | -0.196 E-score
10 | AAGCAGTG | 0.225 E-score
11 | AATTCACA | -0.0493 E-score
12 | ATTTCTGC | -0.326 E-score
13 | GGATCCAC | 0.103 E-score
14 | ACAAATAC | -0.0491 E-score
15 | GATGCGGA | 0.138 E-score
16 | GCCACTGA | -0.163 E-score
17 | CAAACAGA | -0.152 E-score
18 | ATTGAGGA | -0.26 E-score
19 | GGTACCGA | -0.156 E-score
20 | TCATGGGA | -0.0306 E-score
21 | AACGGGCC | -0.131 E-score
22 | CCTTCCCC | 0.0316 E-score
23 | AGAATTCG | -0.114 E-score
24 | GCTCATTA | -0.0591 E-score
25 | ACACCCGG | 0.482 E-score

Row | Sequence | binding signal
26 | ATGTTGTA | -0.242 E-score
27 | CCAGGGCC | -0.0574 E-score
28 | CCAATGTC | -0.123 E-score
29 | CGCGACTC | 0.0918 E-score
30 | ACCTCAGA | 0.128 E-score
31 | CCGCCCGC | 0.125 E-score
32 | ATCGCCCG | 0.0214 E-score
33 | TTTGAAAA | -0.0229 E-score
34 | CCAAAAAG | -0.0374 E-score
35 | CTGACAAA | -0.103 E-score
36 | CGCATGCG | -0.115 E-score
37 | ACATGCTG | 0.0272 E-score
38 | ACTGACGC | -0.0329 E-score
39 | GTGACACA | 0.333 E-score
40 | ACGTTGTG | -0.0413 E-score
41 | ACATGGCG | -0.0948 E-score
42 | AGCGAACC | -0.0683 E-score
43 | AGGCTGTC | -0.172 E-score
44 | CTGACACC | 0.491 E-score
45 | CGCCAACA | 0.0308 E-score
46 | CATTATCC | 0.119 E-score
47 | ATGCGTCG | -0.186 E-score
48 | TCGTTAAA | -0.0551 E-score
49 | CGGGACCC | 0.13 E-score
50 | CGGACAGA | -0.226 E-score

Row | Sequence | binding signal
51 | CAATAAGC | -0.0379 E-score
52 | AGGACGCA | -0.182 E-score
53 | GCTTAACC | 0.0244 E-score
54 | GCAAGCAC | -0.0381 E-score
55 | CTGCGAAG | -0.0304 E-score
56 | GACATAGC | -0.206 E-score
57 | ATGCGACG | -0.128 E-score
58 | AGAGTACC | 0.0918 E-score
59 | CGCATGTC | -0.38 E-score
60 | CGCTTCAG | -0.102 E-score
61 | CCCCCAGG | 0.213 E-score
62 | CGATTACA | 0.143 E-score
63 | CAAATTAG | -0.116 E-score
64 | GTACCTAC | 0.152 E-score
65 | AAGTTGAT | -0.0316 E-score
66 | CCCTTAGA | 0.0471 E-score
67 | AGGTGCCA | 0.138 E-score
68 | GTACAGAA | -0.0776 E-score
69 | CTCAAACA | 0.0362 E-score
70 | CTAACGAA | -0.287 E-score
71 | CGGCGAGC | -0.189 E-score
72 | CTAGGCTC | -0.0975 E-score
73 | AATTCAGT | -0.0393 E-score
74 | AGTTCTAT | -0.0641 E-score
75 | AGGCGTGA | -0.0447 E-score

Row | Sequence | binding signal
76 | CGTTCTGA | -0.0864 E-score
77 | CACTTCGC | 0.0794 E-score
78 | GCCTTGAA | -0.149 E-score
79 | AGTTGCTA | -0.182 E-score
80 | CGCGGAAA | -0.0865 E-score
81 | AGGGTCTG | -0.0319 E-score
82 | ATTCAGAG | 0.0687 E-score
83 | GTACTGAA | -0.00226 E-score
84 | ACCTATGC | -0.143 E-score
85 | AGCAGGCC | -0.212 E-score
86 | GGCTATTA | -0.123 E-score
87 | CCACCCGA | 0.206 E-score
88 | CTATAATA | 0.0234 E-score
89 | AAGATCTC | -0.117 E-score
90 | GCGGGAAC | -0.103 E-score
91 | GTTAGGTA | 0.115 E-score
92 | CGGAACCA | 0.118 E-score
93 | TAGTTAGA | -0.0449 E-score
94 | CCTCATCC | -0.104 E-score
95 | AACTTCCG | -0.144 E-score
96 | GGCCGGGA | -0.0793 E-score
97 | GGAAGCCC | -0.143 E-score
98 | TCGACCCA | -0.0349 E-score
99 | AAAGTTTC | -0.14 E-score
100 | ACGCTACC | 0.0683 E-score

Row | Sequence | binding signal
101 | GGAGCACA | -0.00617 E-score
102 | CAAAATCG | -0.241 E-score
103 | ACAGTCTA | -0.234 E-score
104 | GCTTTCCC | -0.181 E-score
105 | CCAAATGG | 0.108 E-score
106 | CCCGAGAC | 0.204 E-score
107 | ATTAGCAC | 0.105 E-score
108 | CGCCGTAC | 0.178 E-score
109 | GCAGCCCA | -0.00205 E-score
110 | CCAATTTA | 0.238 E-score
111 | CGCCCGAC | 0.184 E-score
112 | AGCTATTC | -0.137 E-score
113 | AAAATCCT | -0.263 E-score
114 | AACAGTCG | -0.173 E-score
115 | CGACGGTC | -0.197 E-score
116 | CAGCAAAG | -0.184 E-score
117 | ACCCTAGA | 0.176 E-score
118 | GACGAGCA | -0.117 E-score
119 | GCAGGGTA | 0.162 E-score
120 | ACTAGGAT | -0.0985 E-score
121 | AGGGGAAA | -0.203 E-score
122 | GTGCCCAA | 0.0527 E-score
123 | ACAATGGG | -0.103 E-score
124 | TACGACGA | -0.0459 E-score
125 | AGCAGCGC | -0.199 E-score

Row | Sequence | binding signal
126 | CTGGACGC | 0.00366 E-score
127 | CTGGATGC | -0.21 E-score
128 | CCTCCGGA | 0.104 E-score
129 | TAAATGCA | -0.131 E-score
130 | CGGCATTA | -0.0854 E-score
131 | CCTTTCAG | -0.0999 E-score
132 | CGTAATAC | 0.0298 E-score
133 | CGCCTGGC | -0.0417 E-score
134 | TCAACCAA | -0.0352 E-score
135 | ACCGAGTG | 0.363 E-score
136 | GGGGTTCA | 0.256 E-score
137 | CACAATCC | 0.0268 E-score
138 | GCTTTTCA | -0.105 E-score
139 | GTCCGAAC | -0.0307 E-score
140 | ACAATTGT | -0.0258 E-score
141 | ACGGCCGG | -0.0557 E-score
142 | AACGCGCA | 0.0053 E-score
143 | ACAGACGG | -0.173 E-score
144 | GGACGAGA | -0.231 E-score
145 | AAGGCGGC | -0.106 E-score
146 | CGTTCCGA | -0.253 E-score
147 | AACTGGCA | -0.1 E-score
148 | AGCCCAGA | -0.0357 E-score
149 | ATAACCCC | 0.266 E-score
150 | TCAAAACA | 0.0373 E-score

Row | Sequence | binding signal
151 | GAGAGAAC | 0.00213 E-score
152 | TACCCGAA | -0.0222 E-score
153 | TGATATCA | -0.0584 E-score
154 | GCGACCCC | 0.212 E-score
155 | AGGGGATA | 0.124 E-score
156 | AGGAGTCA | 0.225 E-score
157 | ATTTCATC | 0.017 E-score
158 | GGCTGCAC | -0.0522 E-score
159 | AGCTCCCT | 0.0251 E-score
160 | ATTTACTC | 0.115 E-score
161 | AAGAGTAA | 0.154 E-score
162 | TCGCATCA | -0.144 E-score
163 | GAGTGGCC | -0.117 E-score
164 | CTTCCCTA | -0.119 E-score
165 | CCAAGATA | 0.144 E-score
166 | CAATCTTA | -0.145 E-score
167 | CCAAAGGC | 0.0858 E-score
168 | CCCGGAAG | 0.102 E-score
169 | ACGGACGG | -0.037 E-score
170 | GCCTAAGC | -0.136 E-score
171 | CTCAAAAA | -0.149 E-score
172 | CACTTGCC | 0.227 E-score
173 | ACGCAAGT | 0.0826 E-score
174 | CCTTCCGC | 0.0209 E-score
175 | CGTAGTGC | 0.0725 E-score

Row | Sequence | binding signal
176 | CACTCCCA | 0.273 E-score
177 | AACATACT | 0.0504 E-score
178 | ATCAGCCA | -0.118 E-score
179 | AAAATCAA | -0.184 E-score
180 | CAGCAGCA | -0.0383 E-score
181 | AGGCGCTA | -0.131 E-score
182 | GCATTTTA | -0.207 E-score
183 | CATATGTA | -0.144 E-score
184 | GTATCGAA | 0.199 E-score
185 | ACCGCAAG | 0.0288 E-score
186 | CCTAGCAC | 0.125 E-score
187 | CATCCGAA | -0.0759 E-score
188 | ACAAAAGC | -0.255 E-score
189 | GGTCTCTA | -0.128 E-score
190 | ATCGCTTA | -0.176 E-score
191 | CGGCTTCA | -0.259 E-score
192 | CTTAAACC | 0.0467 E-score
193 | GTACATAA | -0.0595 E-score
194 | CCACGGAA | 0.141 E-score
195 | GAATGGCC | -0.205 E-score
196 | GGGGCGCA | 0.00559 E-score
197 | TCAGCGCA | -0.189 E-score
198 | CCGAAATC | -0.166 E-score
199 | ACCTTGGA | 0.0007 E-score
200 | TATCTTCA | -0.111 E-score

Row | Sequence | binding signal
201 | GTGGAAAA | -0.0739 E-score
202 | AGGATTTC | -0.164 E-score
203 | CGCCTCGA | -0.0502 E-score
204 | ACTGTTTG | -0.144 E-score
205 | ACGCTCTA | 0.122 E-score
206 | CATCAAAG | -0.159 E-score
207 | ATTCCCCA | -0.0179 E-score
208 | ACGGCGTA | 0.0966 E-score
209 | CAGCCCGC | -0.148 E-score
210 | ATCTGGAG | 0.166 E-score
211 | AGGATCTC | -0.103 E-score
212 | CTATACTC | 0.0376 E-score
213 | GGTAAAAA | -0.19 E-score
214 | GGTCCTTA | -0.0396 E-score
215 | TAACGCCA | 0.16 E-score
216 | ACATGTAT | -0.192 E-score
217 | AGGTTGCG | -0.0164 E-score
218 | ACACAGAG | 0.12 E-score
219 | CCTTGAAG | -0.0733 E-score
